Experimental data reported in patent US11618753B2 (priority 2018, dated 2023).

Test system: MLKL phosphorylation, HT29-L23 human colorectal adenocarcinoma cells
Test: cells
Conditions: read-out: pMLKL HCS Cell Assay (IC50, uM)

Compared with `COc1ncc(-c2cc(CN3CC(F)C3)c3c(N)ncnn23)cc1C(=O)N[C@@H]1CN(C(=O)C2CC(F)(F)C2)C[C@@H]1F` [Example 1582, 5-{4-amino-5-[(3-fluoroazetidin-1-yl)methyl]pyrrolo[2,1-f][1,2,4]triazin-7-yl}-N-[(3R,4S)-1-(3,3-difluorocyclobutanecarbonyl)-4-fluoropyrrolidin-3-yl]-2-methoxypyridine-3-carboxamide], `COc1ncc(-c2cc(CN3CCC(C(F)(F)F)CC3)c3c(N)ncnn23)cc1C(=O)N[C@@H]1CN(C(=O)C2CC(F)(F)C2)C[C@@H]1F` [Example 1597, 5-(4-amino-5-{[4-(trifluoromethyl)piperidin-1-yl]methyl}pyrrolo[2,1-f][1,2,4]triazin-7-yl)-N-[(3R,4S)-1-(3,3-difluorocyclobutanecarbonyl)-4-fluoropyrrolidin-3-yl]-2-methoxypyridine-3-carboxamide] is 3.7-fold higher in IC50: 0.0023 µM for the first, 0.0086 µM for the second.

`COc1ncc(-c2cc(CN3CCCCC3)c3c(N)ncnn23)cc1C(=O)N[C@@H]1CN(C(=O)[C@@](C)(O)C(F)(F)F)C[C@@H]1F` [Example 1583, 5-{4-amino-5-[(piperidin-1-yl)methyl]pyrrolo[2,1-f][1,2,4]triazin-7-yl}-N-[(3R,4S)-4-fluoro-1-[(2R)-3,3,3-trifluoro-2-hydroxy-2-methylpropanoyl]pyrrolidin-3-yl]-2-methoxypyridine-3-carboxamide] and `COc1ncc(-c2cc(CN3CCCC3)c3c(N)ncnn23)cc1C(=O)N[C@@H]1CN(C(=O)[C@@](C)(O)C(F)(F)F)C[C@@H]1F` [Example 1588, 5-{4-amino-5-[(pyrrolidin-1-yl)methyl]pyrrolo[2,1-f][1,2,4]triazin-7-yl}-N-[(3R,4S)-4-fluoro-1-[(2R)-3,3,3-trifluoro-2-hydroxy-2-methylpropanoyl]pyrrolidin-3-yl]-2-methoxypyridine-3-carboxamide] are within 1.5-fold of each other in IC50: 0.0013 µM for the first, 0.0011 µM for the second.

Going from `COc1ncc(-c2cc(CN3CC(C)(C)C3)c3c(N)ncnn23)cc1C(=O)N[C@@H]1CN(C(=O)[C@@](C)(O)C(F)(F)F)C[C@@H]1F` [Example 1584, 5-{4-amino-5-[(3,3-dimethylazetidin-1-yl)methyl]pyrrolo[2,1-f][1,2,4]triazin-7-yl}-N-[(3R,4S)-4-fluoro-1-[(2R)-3,3,3-trifluoro-2-hydroxy-2-methylpropanoyl]pyrrolidin-3-yl]-2-methoxypyridine-3-carboxamide] to `COc1ncc(-c2cc(CN3CCC(F)(F)C3)c3c(N)ncnn23)cc1C(=O)N[C@@H]1CN(C(=O)[C@@](C)(O)C(F)(F)F)C[C@@H]1F` [Example 1589, 5-{4-amino-5-[(3,3-difluoropyrrolidin-1-yl)methyl]pyrrolo[2,1-f][1,2,4]triazin-7-yl}-N-[(3R,4S)-4-fluoro-1-[(2R)-3,3,3-trifluoro-2-hydroxy-2-methylpropanoyl]pyrrolidin-3-yl]-2-methoxypyridine-3-carboxamide], the IC50 falls from 0.0019 µM to 0.00029 µM (6.6-fold).

`COc1ncc(-c2cc(CN3CCC[C@H]3C(F)(F)F)c3c(N)ncnn23)cc1C(=O)N[C@@H]1CN(C(=O)[C@@](C)(O)C(F)(F)F)C[C@@H]1F` [Example 1585, 5-(4-amino-5-{[(2S)-2-(trifluoromethyl)pyrrolidin-1-yl]methyl}pyrrolo[2,1-f][1,2,4]triazin-7-yl)-N-[(3R,4S)-4-fluoro-1-[(2R)-3,3,3-trifluoro-2-hydroxy-2-methylpropanoyl]pyrrolidin-3-yl]-2-methoxypyridine-3-carboxamide] and `COc1ncc(-c2cc(CN3CCCC(C(F)(F)F)C3)c3c(N)ncnn23)cc1C(=O)N[C@@H]1CN(C(=O)[C@@](C)(O)C(F)(F)F)C[C@@H]1F` (stereo partly drawn) [Example 1587, 5-(4-amino-5-{[3-(trifluoromethyl)piperidin-1-yl]methyl}pyrrolo[2,1-f][1,2,4]triazin-7-yl)-N-[(3R,4S)-4-fluoro-1-[(2R)-3,3,3-trifluoro-2-hydroxy-2-methylpropanoyl]pyrrolidin-3-yl]-2-methoxypyridine-3-carboxamide] are within 1.5-fold of each other in IC50: 0.0016 µM for the first, 0.0014 µM for the second.

Going from `COc1ncc(-c2cc(CN3CCC(F)(F)CC3)c3c(N)ncnn23)cc1C(=O)N[C@@H]1CN(C(=O)[C@@](C)(O)C(F)(F)F)C[C@@H]1F` [Example 1586, 5-{4-amino-5-[(4,4-difluoropiperidin-1-yl)methyl]pyrrolo[2,1-f][1,2,4]triazin-7-yl}-N-[(3R,4S)-4-fluoro-1-[(2R)-3,3,3-trifluoro-2-hydroxy-2-methylpropanoyl]pyrrolidin-3-yl]-2-methoxypyridine-3-carboxamide] to `COc1ncc(-c2cc(CN3CCC(C(F)(F)F)CC3)c3c(N)ncnn23)cc1C(=O)N[C@@H]1CN(C(=O)[C@@](C)(O)C(F)(F)F)C[C@@H]1F` [Example 1598, 5-(4-amino-5-{[4-(trifluoromethyl)piperidin-1-yl]methyl}pyrrolo[2,1-f][1,2,4]triazin-7-yl)-N-[(3R,4S)-4-fluoro-1-[(2R)-3,3,3-trifluoro-2-hydroxy-2-methylpropanoyl]pyrrolidin-3-yl]-2-methoxypyridine-3-carboxamide], the IC50 rises from 0.0006 µM to 0.0012 µM (2-fold). The first is the more potent here.

First: COc1ncc(-c2cc(C(C)=O)c3c(N)ncnn23)cc1C(=O)N[C@@H]1CN(C(=O)[C@@](C)(O)C(F)(F)F)C[C@@H]1F [Example 1592, 5-{5-acetyl-4-aminopyrrolo[2,1-f][1,2,4]triazin-7-yl}-N-[(3R,4S)-4-fluoro-1-[(2R)-3,3,3-trifluoro-2-hydroxy-2-methylpropanoyl]pyrrolidin-3-yl]-2-methoxypyridine-3-carboxamide]
Second: COc1ncc(-c2cc(C)c3c(N)ncnn23)cc1C(=O)N[C@@H]1CN(C(=O)[C@@](C)(O)C(F)(F)F)C[C@@H]1F [Example 1593, 5-{4-amino-5-methylpyrrolo[2,1-f][1,2,4]triazin-7-yl}-N-[(3R,4S)-4-fluoro-1-[(2R)-3,3,3-trifluoro-2-hydroxy-2-methylpropanoyl]pyrrolidin-3-yl]-2-methoxypyridine-3-carboxamide]
The IC50 of the first is 1.6-fold lower: 0.0061 µM for the first, 0.01 µM for the second.

`COc1ncc(-c2cc(Cl)c3c(N)ncnn23)cc1C(=O)N[C@@H]1CN(C(=O)[C@@](C)(O)C(F)(F)F)C[C@@H]1F` [Example 1594, 5-{4-amino-5-chloropyrrolo[2,1-f][1,2,4]triazin-7-yl}-N-[(3R,4S)-4-fluoro-1-[(2R)-3,3,3-trifluoro-2-hydroxy-2-methylpropanoyl]pyrrolidin-3-yl]-2-methoxypyridine-3-carboxamide] and `COc1ncc(-c2cc(F)c3c(N)ncnn23)cc1C(=O)N[C@@H]1CN(C(=O)[C@@](C)(O)C(F)(F)F)C[C@@H]1F` [Example 1605, 5-{4-amino-5-fluoropyrrolo[2,1-f][1,2,4]triazin-7-yl}-N-[(3R,4S)-4-fluoro-1-[(2R)-3,3,3-trifluoro-2-hydroxy-2-methylpropanoyl]pyrrolidin-3-yl]-2-methoxypyridine-3-carboxamide] are within 1.5-fold of each other in IC50: 0.0061 µM for the first, 0.0084 µM for the second.

`COc1ncc(-c2ccc3c(N)ncnn23)cc1C(=O)N[C@@H]1CN(C(=O)[C@@](C)(O)C(F)(F)F)C[C@@H]1F` [Example 1595, 5-{4-aminopyrrolo[2,1-f][1,2,4]triazin-7-yl}-N-[(3R,4S)-4-fluoro-1-[(2R)-3,3,3-trifluoro-2-hydroxy-2-methylpropanoyl]pyrrolidin-3-yl]-2-methoxypyridine-3-carboxamide] and `COc1ncc(-c2c(F)cc3c(N)ncnn23)cc1C(=O)N[C@@H]1CN(C(=O)[C@@](C)(O)C(F)(F)F)C[C@@H]1F` [Example 1603, 5-{4-amino-6-fluoropyrrolo[2,1-f][1,2,4]triazin-7-yl}-N-[(3R,4S)-4-fluoro-1-[(2R)-3,3,3-trifluoro-2-hydroxy-2-methylpropanoyl]pyrrolidin-3-yl]-2-methoxypyridine-3-carboxamide] are within 1.5-fold of each other in IC50: 0.013 µM for the first, 0.0099 µM for the second.

Going from `COc1ncc(-c2cc(CN3CCc4ccccc4C3)c3c(N)ncnn23)cc1C(=O)N[C@@H]1CN(C(=O)[C@@](C)(O)C(F)(F)F)C[C@@H]1F` [Example 1600, 5-{4-amino-5-[(1,2,3,4-tetrahydroisoquinolin-2-yl)methyl]pyrrolo[2,1-f][1,2,4]triazin-7-yl}-N-[(3R,4S)-4-fluoro-1-[(2R)-3,3,3-trifluoro-2-hydroxy-2-methylpropanoyl]pyrrolidin-3-yl]-2-methoxypyridine-3-carboxamide] to `COc1ncc(-c2cc(OC)c3c(N)ncnn23)cc1C(=O)N[C@@H]1CN(C(=O)[C@@](C)(O)C(F)(F)F)C[C@@H]1F` [Example 1604, 5-{4-amino-5-methoxypyrrolo[2,1-f][1,2,4]triazin-7-yl}-N-[(3R,4S)-4-fluoro-1-[(2R)-3,3,3-trifluoro-2-hydroxy-2-methylpropanoyl]pyrrolidin-3-yl]-2-methoxypyridine-3-carboxamide], the IC50 rises from 0.0016 µM to 0.0057 µM (3.6-fold).

Compared with `COc1ncc(-c2cc(OS(=O)(=O)c3ccc(C)cc3)c3c(N)ncnn23)cc1C(=O)N[C@@H]1CN(C(=O)C2CC(F)(F)C2)C[C@@H]1F` [Example 1601, 4-amino-7-(5-{[(3R,4S)-1-(3,3-difluorocyclobutanecarbonyl)-4-fluoropyrrolidin-3-yl]carbamoyl}-6-methoxypyridin-3-yl)pyrrolo[2,1-f][1,2,4]triazin-5-yl 4-methylbenzene-1-sulfonate], `COc1ncc(-c2cc(OC(F)F)c3c(N)ncnn23)cc1C(=O)N[C@@H]1CN(C(=O)[C@@](C)(O)C(F)(F)F)C[C@@H]1F` [Example 1606, 5-[4-amino-5-(difluoromethoxy)pyrrolo[2,1-f][1,2,4]triazin-7-yl]-N-[(3R,4S)-4-fluoro-1-[(2R)-3,3,3-trifluoro-2-hydroxy-2-methylpropanoyl]pyrrolidin-3-yl]-2-methoxypyridine-3-carboxamide] is 2.1-fold lower in IC50: 0.0043 µM for the first, 0.002 µM for the second.

Work on `COc1ncc(-c2cc(C(F)F)c3c(N)ncnn23)cc1C(=O)N[C@@H]1CN(C(=O)[C@@](C)(O)C(F)(F)F)C[C@@H]1F` [Example 1602, 5-[4-amino-5-(difluoromethyl)pyrrolo[2,1-f][1,2,4]triazin-7-yl]-N-[(3R,4S)-4-fluoro-1-[(2R)-3,3,3-trifluoro-2-hydroxy-2-methylpropanoyl]pyrrolidin-3-yl]-2-methoxypyridine-3-carboxamide] yielded an IC50 of 0.0095 µM.
